The results in this text go back to ChEMBL document CHEMBL4888484, “Replenishing the malaria drug discovery pipeline: Screening and hit evaluation of the MMV Hit Generation Library 1 (HGL1) against asexual blood stage Plasmodium falciparum ,using a nano luciferase reporter read-out” (2022).

Hit rate of the full screen: of about 150,000 compounds, about 540 (0.36%) showed an effect of 50% or more. The list shows a part of the results.

The subject of this experiment is Plasmodium falciparum. The experiment is described as follows: Primary screen in NF54 nanoGlo assay, in single point, at 2uM, 72h; a lower Z score goes with more inhibition. Format: functional, Erythrocyte. Particulars: timepoint 72 hour.
One may read the % Inhibition as the drop in the measured response relative to a control, in per cent. For the compound `O=C(Nc1cccc(-n2cnnc2)c1)c1ccc(Cl)cc1F`, the “% Inhibition” value is given as -18% and the Z score came to 1.67.
For `Cc1cccc(Oc2nc3ccccc3n3c(=O)n(CC(=O)NCc4ccccc4Cl)nc23)c1C` the same measures were -14% and 2.27.
The corresponding values for `Cc1nnc(NCc2ccccc2OCCN2CCOCC2)s1` are -6% and 0.91.
The corresponding values for `CN1CCN(S(=O)(=O)N2CCN(C(=O)COc3ccc(F)cc3)CC2)CC1` are -1% and 0.12.
`Cc1c(Cl)cc2c(c1Cl)CCCN2C(=O)c1csnn1`: the “% Inhibition” value is -2% and the Z score turned out to be 0.3.
As to `C=CCCS(=O)(=O)Nc1ccc(O)c(C)c1`, the “% Inhibition” value is given as -3% and the Z score amounted to 0.25.
Take `Cc1oc(-c2ccccc2)nc1Cn1nnc(C(=O)Nc2ccc3c(c2)OCCO3)c1N`: the “% Inhibition” value is recorded as -7% and the Z score is 1.08.
With `CC(C)c1ccc(N2CCN(CC(=O)NCc3ccccn3)C2=O)cc1`, the “% Inhibition” value is given as -9% and the Z score turned out to be 1.58.
For `O=C(Nc1ccc(N2CCN(c3ccccc3F)CC2)c(S(=O)(=O)N[C@H]2CCCc3ccccc32)c1)c1cccc2ccccc12` the same measures were 4% and -0.6.
For `CCS(=O)(=O)N1CCN(C[C@@H](O)c2cc3ccccc3o2)CC1` the same measures were -1% and 0.12.
For `CC(C)COc1ccc(C(=O)NC2CCC(n3cccn3)CC2)cn1` (stereo not drawn) the same measures were -13% and 2.49.
Turning to `O=C(NCc1ccccc1)N1C[C@@H]2OC(=O)N(CCc3ccc(F)cc3)[C@@H]2C1`, the “% Inhibition” value is reported as 1% and the Z score is given as -0.15.
For `Cc1nn(C)c(C)c1CNC[C@H]1CN(C2CC2)CCO1` the same measures were -16% and 2.33.
The corresponding values for `O=C(c1c[nH]c2ccccc12)N1CC(C(=O)N2CCCC2)C1` are -4% and 0.49.
The corresponding values for `CN(CC1(C)COC1)C(=O)C(C)(C)Nc1ccccc1` are -11% and 1.92.
As to `COCCOc1ccc(-c2cnc3nc(C)[nH]c3c2)cc1`, the “% Inhibition” value is -6% and the Z score is reported as 1.01.
The corresponding values for `C[C@H]1COC2(CCC2)CN1C(=O)Cc1cc(Cl)cc(Cl)c1` are -18% and 1.98.
The corresponding values for `Cc1cc([C@H](C)NCc2nnc(C3CC3)n2C)c(C)o1` are -15% and 1.36.
For `NC(=O)C12CC(CN1C(=O)[C@H]1CCCOC1)C2` the same measures were 1% and -0.07.
With `Cc1cccc(CN2CCC[C@@]3(CCN(C(=O)CCc4ccco4)C3)C2)c1`, the “% Inhibition” value is -21% and the Z score was found to be 2.99.
The corresponding values for `O=C(N[C@H]1CCOc2ccccc21)C1=CCC1` are -7% and 0.66.
The corresponding values for `COc1ccc2c(c1)Oc1cc(C)ccc1N=C2N1CCCN(C(=O)C(C)C)CC1` are -2% and 0.18.
`O=C(NCc1ccccc1Cl)c1cc2n(n1)CCCO2`: the “% Inhibition” value was -15% and the Z score stood at 2.26.
On to `O=C(Nc1ccc2[nH]ccc2c1)c1cc(-c2cccnc2)nc2ccccc12`, for which the “% Inhibition” value was -8% and the Z score was determined as 1.05.
The corresponding values for `N#Cc1cnn(C(=O)c2cc(-c3ccccc3)nc3ccccc23)c1N` are -5% and 0.5.
The corresponding values for `CCOC(=O)Cc1csc(NC(=O)CN2CCC(COCc3ccc(F)cc3)CC2)n1` are -10% and 1.11.
As for `CCn1nccc1C(=O)N1CCC(c2nnc(Cn3cccn3)n2C)CC1`, the “% Inhibition” value is given as 10% and the Z score is on record as -0.95.
Regarding `O=S(=O)(Cc1ccco1)[C@H]1CCN(S(=O)(=O)c2ccc3c(c2)CCCC3)C1`, the “% Inhibition” value is on record as -5% and the Z score was determined as 0.87.
The corresponding values for `C#Cc1cncc(C(=O)N(C)Cc2cc(C)on2)c1` are -9% and 1.07.
Turning to `c1ccc(-n2ncc3c2CCC[C@@H]3NCc2cccnc2)nc1`, the “% Inhibition” value was -5% and the Z score amounted to 0.81.
Turning to `CCOc1ccc2c(c1)-c1c(ssc1=S)C(C)(C)N2C(=O)c1cccnc1`, the “% Inhibition” value is reported as 8% and the Z score is -0.93.
Consider `O=S(=O)(NC[C@H]1CC2c3ccccc3C1c1ccccc12)c1cccs1`, for which the “% Inhibition” value is reported as -1% and the Z score came to 0.12.
The corresponding values for `O=C(NCc1c[nH]nc1-c1ccc(F)cc1)N1CC[C@H](N2CCCCC2)C1` are -4% and 0.77.
In the case of `Cc1nccc(O)c1OCC(=O)Nc1cccc(C(F)(F)F)c1`, the “% Inhibition” value is recorded as -10% and the Z score is listed as 1.84.
As for `Cc1cc(Br)cnc1N1CCN([C@H]2CCS(=O)(=O)C2)CC1`, the “% Inhibition” value is -13% and the Z score is 2.5.
For `CCn1c(C2CCNCC2)nn(CC(=O)N[C@@H](C)c2ccc(C)cc2)c1=O` the same measures were -2% and 0.37.
For `Cc1cc(=O)c(C(=O)Nc2c(F)cccc2NC(C)C)c[nH]1`, the “% Inhibition” value was -2% and the Z score was 0.29.
On to `O=C(Cc1cccc(Cl)c1)N[C@H]1CCN(Cc2cscn2)C[C@@H]1O`, for which the “% Inhibition” value is -7% and the Z score is given as 0.88.
As for `Cc1ccc(C)c(OCCn2ncc3[nH]cnc3c2=O)c1`, the “% Inhibition” value was -8% and the Z score turned out to be 1.28.
As to `CCN1CCN(C(=O)CN2C(=O)COc3ccc(C(=O)COc4ccc(Cl)cc4F)cc32)CC1`, the “% Inhibition” value is on record as 2% and the Z score was -0.21.
The corresponding values for `Cc1ccc2sc(N(Cc3cccnc3)C(=O)C3=COCCO3)nc2c1C` are -13% and 2.44.
For `O=C(Nc1cc(-n2cncn2)ncn1)c1cncc(Br)c1` the same measures were -14% and 2.38.
The corresponding values for `CC[C@H](C)n1nc(NC(=O)C(=O)Nc2c(OC)ncnc2N(C)C)cc1C` are -1% and 0.08.
Consider `Cc1nc2cc(NS(=O)(=O)CCOc3ccccc3)ccc2s1`, for which the “% Inhibition” value is -11% and the Z score was 2.15.
The corresponding values for `CCc1ccccc1OCCN1CCOC[C@](O)(CN2CCCC2)C1` are -4% and 0.75.
The corresponding values for `CCc1nc(CN2C(=O)OC(C)(C)C2=O)cs1` are -14% and 1.72.
Turning to `CN(C)C1CCN(Cc2cc(Br)cc3c2OCC3)CC1`, the “% Inhibition” value is -6% and the Z score was found to be 0.72.
Regarding `COc1ccc(-c2cc(-c3cccnc3)nc(N)c2C#N)c(OC)c1C`, the “% Inhibition” value was 2% and the Z score was -0.24.
For `CN(C)c1ccc(C(=O)N2CC(S(=O)(=O)N3CCOCC3)C2)cn1` the same measures were 5% and -0.61.
Consider `CN(C)CC(=O)NC1(Cc2ccccc2)CC1`, for which the “% Inhibition” value was -11% and the Z score was determined as 1.53.
The corresponding values for `CCS(=O)(=O)c1ccc(N2CCC(Cc3nccn3C)CC2)cc1` are -4% and 0.36.
For `COc1ccc(C(=O)Nc2cnn(CCN3CCCCC3)c2)nc1` the same measures were -6% and 1.1.
The corresponding values for `O=C(COC(=O)c1ccc(S(=O)(=O)N2CCCCC2)cc1)Nc1cccc(C(F)(F)F)c1` are -1% and 0.2.
In the case of `COc1ccc(C2C(C(=O)O)c3ccccc3C(=O)N2C2CCCC2)cc1` (stereo not drawn), the “% Inhibition” value was determined as 4% and the Z score is reported as -0.69.
The corresponding values for `CC(C)(C)OC(=O)N1C2CCC1CC(NC(=O)CCc1ccco1)C2` (stereo not drawn) are -5% and 0.9.
For `NC(=O)C1CCN(C(=O)CN2CCCC2CC2CC3CCC2C3)CC1` (stereo not drawn) the same measures were -9% and 0.97.
For `CCCS(=O)(=O)N1CCN(c2nc(C3CC3)nc(COC)c2Cc2cccc(C)c2)CC1` the same measures were -4% and 0.49.
For `O=C1CCN(C(=O)c2cccc(-c3ccccc3F)c2)CCN1Cc1ccccn1`, the “% Inhibition” value is reported as 3% and the Z score was -0.29.
Take `Cc1nn(C)c(C)c1CCN(C)c1nc(C2CC2)nc2c1CCC2`: the “% Inhibition” value is -19% and the Z score was determined as 2.07.
As to `Cn1c(CO)nnc1C1CCN(C(=O)c2ccc(-c3cnccn3)cc2)CC1`, the “% Inhibition” value was determined as 12% and the Z score is recorded as -1.52.
The corresponding values for `COC(=O)C(C)(C)[C@H]1CCCN(C(=O)CCc2ccncc2)C1` are -1% and 0.18.
The corresponding values for `Cc1nc(CN2c3ccccc3OC[C@@H]2C)oc1C` are -9% and 1.27.
For `Cc1ccc2c(c1)S(=O)(=O)NCCOCCOCCNS(=O)(=O)c1cc(C)ccc1OCCOCCO2` the same measures were -9% and 1.27.
With `Cc1nnc(N2CCC(C(=O)NCCN3CCCC3)CC2)c2nn(-c3ccc(Cl)cc3)c(C)c12`, the “% Inhibition” value is reported as 15% and the Z score was -1.73.
For `CC(C)(C)OC(=O)N1C2CCCC1CN(C(=O)Nc1cccc3[nH]ccc13)C2` the same measures were 1% and -0.28.
Take `CCC(=O)N1CCC2(CC1)C[C@@H](N(Cc1ccccc1)C1CC1)CCO2`: the “% Inhibition” value came to 6% and the Z score is -1.06.
As to `COc1ccc([C@@H]2NCCC23C(=O)N(Cc2ccccc2)c2ccccc23)cc1` (stereo partly drawn), the “% Inhibition” value amounted to 2% and the Z score is on record as -0.36.
For `O=C(Cn1cccc1-c1nc(-c2ccccc2)cs1)N1CCC(N2CCCCC2)CC1` the same measures were 0% and -0.04.
In the case of `CC(C)CCc1n[nH]c(CCCc2cn[nH]c2)n1`, the “% Inhibition” value was -1% and the Z score is reported as 0.21.
On to `NS(=O)(=O)[C@H]1CCN(C(=O)C2CCC(F)(F)CC2)C1`, for which the “% Inhibition” value is -10% and the Z score is on record as 1.31.
Regarding `O=C(NC1CCC(O)CC1)N1CCC[C@H]1c1nc2ccccc2s1` (stereo partly drawn), the “% Inhibition” value is -1% and the Z score came out at 0.24.
As to `CNC(=O)c1ccc(OC(=O)c2c(C(C)C)nn(C)c2Cl)cc1`, the “% Inhibition” value was -6% and the Z score turned out to be 0.81.
The corresponding values for `Cn1c(C(F)(F)F)nn(C2CCN(Cc3cccnc3)CC2)c1=O` are -5% and 0.58.
The corresponding values for `Cc1ccc(-n2nnnc2C2(NC(C)C)CCCC2)cc1` are -3% and 0.43.
For the compound `Cc1cccnc1C(NC(=O)NC1CCCN(S(C)(=O)=O)C1)C(C)C` (stereo not drawn), the “% Inhibition” value is -14% and the Z score was 1.39.
The corresponding values for `Cc1cc(=O)[nH]c(N2CCC(NC(=O)NCc3ccco3)CC2)n1` are -6% and 1.07.
With `Cc1ccc(CN2CCC3(CC2)C[C@@H](C(=O)NCc2ccccn2)N(C)C3)s1`, the “% Inhibition” value is listed as 35% and the Z score is on record as -0.88.
For `Cc1nc(CN2CCN(c3cccc(Cl)c3)CC2)[nH]c1C` the same measures were -1% and 0.12.
The corresponding values for `Cc1ccc([C@]2(C)NC(=O)N(Cc3nnsc3Cl)C2=O)o1` are -4% and 0.76.
The corresponding values for `Cc1cc(Cl)ccc1-n1cnc(=O)n1CC(=O)NC1CC1` are -5% and 0.83.
As for `OC1(c2nc(-c3ccccn3)no2)CCCCC1`, the “% Inhibition” value is given as -1% and the Z score was 0.08.
With `NC(=O)c1cccnc1N1CC[C@@]2(CCCN(CC3CCCCC3)C2)C1`, the “% Inhibition” value came to 3% and the Z score was -0.5.
With `C[C@H](NC(=O)N1CCC2(CCOCC2)C1)c1ccc(F)cc1Cl`, the “% Inhibition” value was -3% and the Z score is 0.39.
For `CC1(C)C(NCC2CCCCN2S(C)(=O)=O)[C@@H]2CCC[C@@H]21` (stereo partly drawn) the same measures were -5% and 0.77.
